Measurements as given in the antibiotic and cytotoxicity screens of Wong et al. (2023).
This is one part of the list.

tested on: HepG2; assay: cytotoxicity call (relative viability < 0.9); conditions: 10 µM

| SMILES | cytotoxicity call |
| --- | --- |
| C[C@@H]1CCCCO[C@@H](CN(C)Cc2ccccc2)[C@H](C)CN([C@@H](C)CO)C(=O)c2cc(NC(=O)c3ccccc3)ccc2O1 | inactive |
| C[C@@H]1CN([C@H](C)CO)C(=O)Cc2cc(NS(C)(=O)=O)ccc2O[C@@H]1CN(C)Cc1ccc(C(=O)Nc2ccccc2N)cc1 | inactive |
| C[C@H]1CN([C@@H](C)CO)S(=O)(=O)c2ccc(Br)cc2O[C@@H]1CN(C)CC1CCOCC1 | inactive |
| COc1ccc([Si](C)(C)[C@@H]2[C@@H](CCO)O[C@]3(C(=O)N(Cc4cccc(N5CCCCC5=O)c4)c4ccccc43)[C@H]2C)cc1 | inactive |
| C[C@@H]1CN([C@H](C)CO)C(=O)c2cc(C#CCN(C)C)cnc2O[C@@H]1CN(C)C(=O)CN1CCOCC1 | inactive |
| COc1ccc(NC(=O)N(C)C[C@@H]2OCCCC[C@H](C)Oc3ccc(NS(=O)(=O)c4ccc(Cl)cc4)cc3C(=O)N([C@H](C)CO)C[C@H]2C)cc1 | inactive |
| C[C@@H]1CCCCO[C@@H](CN(C)S(=O)(=O)c2ccc(F)cc2)[C@@H](C)CN([C@@H](C)CO)C(=O)c2cc(NC(=O)CCC(F)(F)F)ccc2O1 | inactive |
| C[C@@H]1CN([C@H](C)CO)C(=O)Cc2cc(NC(=O)CCCCCC(=O)Nc3ccccc3N)ccc2O[C@H]1CN(C)S(=O)(=O)c1cn(C)cn1 | inactive |
| COc1ccc(S(=O)(=O)N[C@H]2C=C[C@H](CC(=O)N3CCC(Cc4ccccc4)CC3)O[C@H]2CO)cc1 | inactive |
| C[C@@H]1CCCCO[C@@H](CN(C)Cc2ccc3c(c2)OCO3)[C@@H](C)CN([C@H](C)CO)C(=O)c2cc(NC(=O)CCCCCC(=O)Nc3ccccc3N)ccc2O1 | inactive |
| CCOC(=O)[C@H](N)/C=C(\C)CP(=O)(O)O | inactive |
| C[C@@H]1CCCCO[C@@H](CN(C)Cc2ccccc2)[C@@H](C)CN([C@@H](C)CO)C(=O)c2cc(NS(=O)(=O)c3cccs3)ccc2O1 | inactive |
| CNC(=O)Cn1c(=O)c2c(OC)ccnc2n(C)c1=O | inactive |
| O=C(C[C@@H]1CC[C@@H]2[C@H](COC[C@H](O)CN2C(=O)c2ccc3c(c2)OCO3)O1)NC1Cc2ccccc2C1 | inactive |
| COc1ccc(NC(=O)Nc2cccc3c2O[C@H](CN(C)S(C)(=O)=O)[C@H](C)CN([C@@H](C)CO)C3=O)cc1 | inactive |
| Cc1ccc(OC(=O)N(C)C[C@@H]2OCc3ccccc3-c3ccccc3C(=O)N([C@H](C)CO)C[C@H]2C)cc1 | inactive |
| C[C@H](CO)N1C[C@H](C)[C@H](CN(C)C(=O)c2ccccc2)OCCCC[C@H](C)Oc2ccc(NS(=O)(=O)c3ccc(Cl)cc3)cc2C1=O | inactive |
| O=[N+]([O-])c1cccc2c1nnn2[C@H](CO)OCCO | inactive |
| O=C(CN1CCOCC1)N[C@@H]1CC[C@H](CCn2cc(C3CCCC3)nn2)O[C@H]1CO | inactive |
| C[C@@H]1CN([C@H](C)CO)C(=O)c2cccc(NC(=O)C3CC3)c2O[C@@H]1CN(C)Cc1ccc(Oc2ccccc2)cc1 | inactive |

| SMILES | cytotoxicity call |
| --- | --- |
| C[C@@H]1CN([C@@H](C)CO)C(=O)c2cc(NC(=O)CCC(F)(F)F)ccc2O[C@H]1CN(C)Cc1ccc(C(=O)Nc2ccccc2N)cc1 | inactive |
| COc1ccc(COC[C@]23Oc4ccccc4[C@H]([C@H]2CO[Si](C)(C)C(C)(C)C)N(C(=O)CC(C)=O)C(=O)N3C)cc1 | inactive |
| C[C@@H]1CN([C@@H](C)CO)C(=O)c2cc(NS(=O)(=O)c3cn(C)cn3)ccc2O[C@@H]1CN(C)S(=O)(=O)c1cn(C)cn1 | inactive |
| C[C@@H]1CN([C@@H](C)CO)C(=O)Cc2cc(NC(=O)CCC(F)(F)F)ccc2O[C@H]1CN(C)C(=O)Nc1cccc2ccccc12 | inactive |
| CCNC(=O)C[C@@H]1C=C[C@H](NC(=O)C2CC2)[C@@H](CO)O1 | inactive |
| C[C@H](CO)N1C[C@H](C)[C@H](CN(C)S(=O)(=O)c2ccccc2)Oc2ccc(NS(=O)(=O)c3cccs3)cc2CC1=O | inactive |
| C[C@@H]1CCCCO[C@H](CN(C)CC2CCCCC2)[C@H](C)CN([C@@H](C)CO)C(=O)c2cc(NC(=O)NC3CCCCC3)ccc2O1 | inactive |
| Nc1ccc(C(=O)[O-])cc1.[K+] | inactive |
| CC(C)NC(=O)N(C)C[C@@H]1OCc2cn(nn2)CCCC(=O)N([C@H](C)CO)C[C@@H]1C | inactive |
| O=C(c1cnn2c1OCCC2)N1CC(O)C1 | inactive |
| COCCN1C(=O)C[C@@H]2[C@@H]1CCN2C(=O)c1csnn1 | inactive |
| Cc1ccc(S(=O)(=O)N(C)C[C@@H]2OCCCC[C@@H](C)Oc3ccc(NS(C)(=O)=O)cc3C(=O)N([C@H](C)CO)C[C@@H]2C)cc1 | inactive |
| CNC[C@@H]1OCCCC[C@@H](C)Oc2ccc(NS(=O)(=O)c3cn(C)cn3)cc2C(=O)N([C@@H](C)CO)C[C@H]1C | inactive |
| COc1cc(C=CC(N)=O)cc(OC)c1OC | active |
| Oc1ccc2c(c1)OCC1(O)Cc3cc(O)c(O)cc3C21 (stereo not given) | inactive |
| C[C@H](CO)N1C[C@H](C)[C@H](CN(C)Cc2ccc(C(=O)O)cc2)Oc2ccc(NC(=O)c3ccncc3)cc2C1=O | inactive |
| C[C@@H]1CCCCO[C@@H](CN(C)C(=O)Nc2ccc(C(F)(F)F)cc2)[C@H](C)CN([C@@H](C)CO)C(=O)c2cc(NC(=O)C3CCCCC3)ccc2O1 | inactive |
| C[C@H]1CCCCO[C@@H](CN(C)C(=O)C2CCCCC2)[C@@H](C)CN([C@@H](C)CO)C(=O)c2cc(NC(=O)c3ccccc3)ccc2O1 | inactive |
| C[C@@H]1CCCCO[C@@H](CN(C)C(=O)Nc2ccc(C(F)(F)F)cc2)[C@@H](C)CN([C@@H](C)CO)C(=O)c2cc(NC(=O)C3CCCCC3)ccc2O1 | inactive |
| C[C@@H]1CN([C@H](C)CO)S(=O)(=O)c2ccc(-c3cccc(C#N)c3)cc2O[C@@H]1CN(C)C(=O)c1ccncc1 | inactive |
